According to PubChem BioAssay AID1458 (National Center for Advancing Translational Sciences (NCATS), 2008):
Screen size: about 210,000 compounds; about 5,900 (2.8%) were called active. The shares of active, inactive and inconclusive entries below differ from those in the screen. Calls follow the shape of the dose curve; as a rule, active = well fitted activation curve with a large enough effect; inconclusive = small, poorly fitted or top-dose-only effect; inactive = no such curve, though single readings can be large or run the other way. A potency beside an inconclusive call is a rough fit, not a confirmed value.
Potency is read from the fitted curve at half-maximal effect; tags tell the direction and shape of the fitted curve.

Assay: qHTS Assay for Enhancers of SMN2 Splice Variant Expression; also: nearly all actives have a fitted effect of over 55% in size; as to activity change, positive = activation: % of control where 0% means no effect
Conditions: HEK293 SMN2-luciferase splicing reporter, luminescence, 30-36 h; activity change, positive = activation: at 46.1 µM (top of the series)
How it was run: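 HEK293 cells carry an SMN2 […]–luciferase reporter in which exon 7 inclusion puts luciferase in frame. Cells were plated 10-12 h before compound addition, then incubated 30-36 h at 37C. ONE-Glo luminescence was read; sodium butyrate at 4.5 mM final served as control.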
In the case of c1csc(-c2nnc(-c3ccc(N4CCOCC4)cc3)o2)c1, the Potency is reported as active: 1.26 µM. For CCN(c1ccccc1)S(=O)(=O)c1ccc(OC)c(NC(=O)CNCC(C)O)c1 (configuration not stated), the Potency was inconclusive: 4.47 µM [activator, full curve, poor fit]. For Cc1ccc(S(=O)(=O)c2nnn3c2nc(N2CCN(c4ccccc4F)CC2)c2cc(Cl)ccc23)cc1C, the “activity change, positive = activation” value was inactive: -3.67%. With CN(C)c1ccc(C(=O)c2ccc(N(C)C)c3ccccc23)cc1 the Potency was inconclusive: 28.2 µM [activator, single point]. With COc1cc(/C=N/NC(N)=O)ccc1OCC(=O)Nc1cc(C)c(C)cc1Br the “activity change, positive = activation” value was inactive: 17.8%. With CCCCc1ccc(NC(=S)Nc2ccc(Nc3ccc(OC)cc3)cc2)cc1 the “activity change, positive = activation” value was inactive: -30.9%. With COc1cc(/C=C2/C(=O)N(c3ccccc3)N=C2C)ccc1OS(=O)(=O)c1ccccc1 the “activity change, positive = activation” value was inactive: 7.79%. For COc1ccccc1CC(=O)Nc1ccccc1C(=O)O, the Potency was inconclusive: 0.224 µM [activator, full curve, poor fit]. For CCOc1ccc(Oc2nc(NCC(C)C)nc(N3CCOCC3)n2)nn1, the Potency was inconclusive: 4.47 µM [activator, partial curve]. In the case of Cc1cccc(-c2nc(C#N)c(N3CCCCCC3)o2)c1, the Potency is reported as inconclusive: 0.562 µM [activator, full curve]. For CC(C)c1nnc(SCC(=O)NCc2ccco2)n1C, the Potency was inconclusive: 0.447 µM [activator, full curve]. For CCCCC(=O)Nc1cccc(NC(=O)c2ccc3c(c2)OCO3)c1, the Potency was inconclusive: 1 µM [activator, partial curve]. For Cc1cc2nc(-c3ccc(SCC(=O)N4CCN(C(=O)c5ccco5)CC4)nc3)[nH]c2cc1C, the Potency was active: 7.94 µM. With COC(=O)c1cc(NC(=O)c2cccs2)ccc1N1CCOCC1 the “activity change, positive = activation” value was inactive: 8.9%. For O=C(Nc1ccc(OCc2ccccc2)cc1)c1ccccc1, the Potency was inconclusive: 2.51 µM [activator, full curve, poor fit]. With Cc1noc(C)c1S(=O)(=O)N1CCC(C(=O)N2CCC(C)CC2)CC1 the Potency was inconclusive: 0.794 µM [activator, full curve, poor fit]. In the case of CC(C)Oc1ccc(C(=O)NCc2ccco2)cc1, the Potency is reported as inconclusive: 22.4 µM [activator, partial curve]. For CCOC(=O)c1cnc2c(C)c(C)ccc2c1Nc1ccc(S(=O)(=O)Nc2ncccn2)cc1, the Potency was inconclusive: 20 µM [activator, partial curve, poor fit]. For Cc1ccc(C2CCN(C(=O)Nc3ccccc3)C2)cc1 (configuration not stated), the Potency was inconclusive: 22.4 µM [activator, single point]. In the case of Cc1ccc(NC(=O)C2CCCN(c3nnc(-n4c(C)ccc4C)s3)C2)c(C)c1 (configuration not stated), the “activity change, positive = activation” value is reported as inactive: 9.63%. With O=[N+]([O-])c1cccc(N/N=C/c2cccc3ccccc23)c1 the Potency was inconclusive: 10 µM [activator, partial curve]. With O=C(NCc1ccco1)c1cc2sccc2n1Cc1ccc(F)cc1 the Potency was inconclusive: 35.5 µM [activator, partial curve, poor fit]. With Nc1nnc(SCC(=O)NN2C(=O)NC3(CCCCC3)C2=O)s1 the “activity change, positive = activation” value was inactive: 2.84%. With COc1ccc(OC)c(C2Nc3nc4ccccc4n3C(C)=C2C(=O)Nc2ccc(C)cc2C)c1 (configuration not stated) the Potency was active: 7.94 µM. With Cc1cccc(NC(=O)c2ccc3snnc3c2)c1 the Potency was inconclusive: 11.2 µM [activator, single point]. With Cc1ccc2nc(-c3ccc(Cl)c(NC(=O)COc4cccc(C)c4C)c3)oc2c1 the Potency was inconclusive: 35.5 µM [activator, single point]. With CCn1c(C(=O)NCc2ccccc2C)cc2oc3ccccc3c21 the Potency was inconclusive: 17.8 µM [activator, single point]. For Clc1ccc(-c2nnc(-c3ccc(Br)o3)o2)c(Cl)c1, the Potency was inconclusive: 20 µM [activator, single point]. In the case of O=C(O)COc1ccc(-c2nccc(-c3cccs3)n2)cc1, the Potency is reported as inconclusive: 15.8 µM [activator, partial curve, poor fit]. With CCN(CC)CCC(=O)Nc1ccc2c(c1)N(C(=O)CN(CC)CC)c1ccccc1CC2 the Potency was inconclusive: 0.141 µM [activator, full curve, poor fit]. In the case of CCOC(=O)N1CCN(C(=O)Nc2ccc3nc(C)sc3c2)CC1, the Potency is reported as inconclusive: 3.16 µM [activator, partial curve, poor fit]. For CCCn1nc(C(=O)Nc2cccc(C(=O)OC)c2)c2ccccc2c1=O, the “activity change, positive = activation” value was inactive: -14.5%. For Cc1cccc(Nc2ncnc3nc[nH]c23)c1, the Potency was inconclusive: 22.4 µM [activator, single point]. In the case of COc1cccc(CNC(=O)CCS(=O)(=O)c2cccs2)c1, the Potency is reported as inconclusive: 1.78 µM [activator, partial curve]. For COc1cc(OC)cc(-n2nnnc2SCC(=O)Nc2nc3c(s2)CCCC3)c1, the “activity change, positive = activation” value was inactive: 2.96%. In the case of O=C(CCNC(=O)c1ccccc1Cl)NC1=NCCS1, the “activity change, positive = activation” value is reported as inactive: 6.62%. With CCc1nc(-c2ccccc2)cc(=O)[nH]1 the Potency was inconclusive: 3.98 µM [activator, partial curve]. For CC(C)CC(=O)Nc1cccc(-c2cn3ccsc3n2)c1, the Potency was active: 17.8 µM. In the case of Cc1nn(Cc2ccccc2Cl)c(C)c1NC(=O)c1cc(C(C)C)on1, the Potency is reported as inconclusive: 35.5 µM [activator, single point]. With c1ccc(-c2nc(-c3cccnc3)n[nH]2)cc1 the Potency was inconclusive: 28.2 µM [activator, single point]. In the case of CN(c1ccc(C(=O)N2CCN(Cc3ccc4c(c3)OCO4)CC2)cc1)S(=O)(=O)c1ccccc1, the “activity change, positive = activation” value is reported as inactive: -68.7%. With CCCC(=O)Nc1nc2ccc(OC)cc2s1 the Potency was active: 10 µM. In the case of CS(=O)(=O)c1ccc2nc(NC(=O)CCC(=O)c3cccs3)sc2c1, the Potency is reported as inconclusive: 5.62 µM [activator, partial curve, poor fit]. With O=C(NC1=NCCS1)c1ccc(Br)s1 the Potency was active: 11.2 µM. In the case of Nc1ccc(N2CCN(c3ncc(C(F)(F)F)cc3Cl)CC2)c(C(F)(F)F)c1, the “activity change, positive = activation” value is reported as inactive: -49%. In the case of COc1ccc2c(C)cc(SCC(=O)Nc3nsc(-c4ccccc4C)n3)nc2c1, the “activity change, positive = activation” value is reported as inactive: 3.2%. With O=C(CSc1nnc(-c2ccc(F)cc2)o1)c1ccc2c(c1)OCCO2 the “activity change, positive = activation” value was inactive: 3.28%.
